# In all, about 310,000 compounds went through this assay and about 14,000 (4.5%) showed an effect of 50% or more. Effects have a minus sign here. This is one part of the list.
# Molecular target: human ether-à-go-go-related gene (hERG) potassium channel (human, UniProt Q12809)
# Test: primary screen, population patch clamp on CHO cells stably expressing hERG
# 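Also: peak tail current of the secondary pulse compared with the same well before compound.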
# Sequence of human ether-à-go-go-related gene (hERG) potassium channel (Q12809 whole entry, looked up): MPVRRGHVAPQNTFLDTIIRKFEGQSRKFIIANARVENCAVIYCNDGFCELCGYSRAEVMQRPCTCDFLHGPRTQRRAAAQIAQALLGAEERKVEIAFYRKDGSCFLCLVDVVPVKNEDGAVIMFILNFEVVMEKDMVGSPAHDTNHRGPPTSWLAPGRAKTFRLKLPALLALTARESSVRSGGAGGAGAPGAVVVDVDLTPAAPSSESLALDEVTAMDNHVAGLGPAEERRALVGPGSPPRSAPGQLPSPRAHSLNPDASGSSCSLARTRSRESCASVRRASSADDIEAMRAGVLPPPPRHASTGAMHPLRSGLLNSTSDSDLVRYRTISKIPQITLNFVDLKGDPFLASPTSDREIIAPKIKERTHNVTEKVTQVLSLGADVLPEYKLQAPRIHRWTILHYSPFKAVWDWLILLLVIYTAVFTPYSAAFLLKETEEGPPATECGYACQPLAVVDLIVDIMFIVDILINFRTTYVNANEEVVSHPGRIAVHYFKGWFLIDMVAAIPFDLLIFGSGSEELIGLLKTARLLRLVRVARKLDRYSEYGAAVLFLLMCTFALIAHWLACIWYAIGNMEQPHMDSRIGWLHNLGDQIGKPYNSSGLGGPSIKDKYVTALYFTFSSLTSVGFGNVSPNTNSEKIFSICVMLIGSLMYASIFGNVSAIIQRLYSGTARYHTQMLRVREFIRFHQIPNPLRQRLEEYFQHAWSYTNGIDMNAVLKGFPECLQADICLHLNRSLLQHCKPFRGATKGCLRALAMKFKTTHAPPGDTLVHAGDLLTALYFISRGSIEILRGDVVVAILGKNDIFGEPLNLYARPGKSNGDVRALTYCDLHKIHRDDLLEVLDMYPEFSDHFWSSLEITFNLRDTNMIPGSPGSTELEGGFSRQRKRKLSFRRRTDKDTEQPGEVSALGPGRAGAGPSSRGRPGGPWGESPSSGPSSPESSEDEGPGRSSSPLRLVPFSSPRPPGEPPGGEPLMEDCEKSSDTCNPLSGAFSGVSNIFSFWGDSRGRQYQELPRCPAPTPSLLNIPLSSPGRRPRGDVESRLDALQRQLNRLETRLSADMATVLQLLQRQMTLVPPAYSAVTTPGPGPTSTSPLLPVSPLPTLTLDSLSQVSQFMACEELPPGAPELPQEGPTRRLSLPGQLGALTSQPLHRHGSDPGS
row,Compound,"hERG current change (%, negative = inhibition) at 10uM [%]"
1,COc1ccc(C(CC(=O)Nc2ccccn2)N2Cc3ccccc3C2=O)cc1 (stereo not shown),-30.2
2,Cc1cccc(NS(=O)(=O)c2nnc(NC(=O)c3ccc(Cl)cc3)s2)c1,3.53
3,CCOC(=O)c1csc(NC(C)=O)n1,16.1
4,CCOC(=O)C1CCN(C(=O)COc2ccc(S(=O)(=O)N3CCOCC3)cc2C)CC1,-1.46
5,O=C(NCC1CCCN1S(=O)(=O)c1cccs1)c1ccc(F)cc1 (stereo not shown),-13.9
6,COc1ccc(C2C3=C(N=C4SCC(=O)N42)c2ccccc2CC3)cc1 (stereo not shown),-8.9
7,Cc1cccc(NC(=S)N2CCN(Cc3ccccc3)CC2)c1C,-13.2
8,CCN(CC(=O)N1CCOCC1)S(=O)(=O)c1ccc(Cl)cc1,1.62
9,O=[N+]([O-])c1ccc(NCCc2ccccc2)c(Br)c1,17.6
10,CCOc1cc(C(=O)N(C)Cc2cc3cc(OC)ccc3[nH]c2=O)cc(OCC)c1OCC,-7.8
11,CSc1cccc(NC(=O)CCNS(=O)(=O)c2ccc3[nH]c(=O)oc3c2)c1,12.5
12,NCc1c(O)ccc2ccccc12,13.4
13,CCC(C)n1c(O)c(C=NCCc2ccccc2)c(=O)[nH]c1=S (stereo not shown),14.5
14,CCOC(=O)C1CCCN(C(=O)c2ccc(C)c(NC(=O)C3=C(C)OCCS3)c2)C1 (stereo not shown),14.5
15,COc1cccc(NC(=S)NC(=O)/C=C/c2ccc(F)cc2)c1,19
16,CCO[C@@H]1c2c(ccc3ccc(=O)oc23)OC(C)(C)[C@@H]1O,22.3
17,CCCCNC(=O)C1CCN(Cc2ccccn2)CC1,12
18,O=C(CSc1nccc(=O)[nH]1)NC1CCCc2ccccc21 (stereo not shown),4.2
19,CCOc1ccc(N=Cc2c(O)n(-c3cccc(C)n3)c(=O)c3ccccc23)cc1,-34.1
20,Cn1c(Oc2ccc(F)cc2F)c(C=O)c2ccccc21,-17.7
21,Cc1nccn1S(=O)(=O)c1cc([N+](=O)[O-])ccc1Cl,0.394
22,COc1ccc(-n2c(-c3ccc(Br)cc3)c[n+]3c2CCCCC3)cc1.[Br-],-80.3

row,Compound,"hERG current change (%, negative = inhibition) at 10uM [%]"
1,O=C(CNC(=O)c1cccs1)N=Nc1c(O)[nH]c2ccc(Br)cc12,14.8
2,Cc1oc(-c2ccccc2Cl)nc1CSc1nc2c(c(=O)[nH]1)CCCC2,8.98
3,Cc1cc(C)c(S(=O)(=O)N2CCCCC2CCNC(=O)C(=O)NCCN2CCOCC2)c(C)c1 (stereo not shown),-23.9
4,CCOc1ccc(Cn2nnc(-c3ccc(S(C)(=O)=O)cc3)n2)cc1OCC,17.8
5,CCOC(=O)C1(Cc2cccc(OC)c2)CCN(Cc2ccc(C)s2)CC1,-67.1
6,CC(C)c1ccc(NC(=O)N2CCc3ccccc3C2)cc1,-15.1
7,CN(CCCC1CCCC1)C(=O)c1cc(COc2ccc(F)c(F)c2)on1,11.5
8,Fc1ccc(N2CCN(c3nnnn3-c3ccccc3)CC2)cc1,-17
9,COc1ccc2[nH]c(=O)c(CNc3ccc(C)c(C)c3)cc2c1,3.24
10,CC(C)(C)NC(=O)C(=O)NNC(=O)COc1ccccc1,-14.4
11,O=C(NCCCn1ccnc1)/C(=C\c1cccnc1)NC(=O)c1ccccc1F,-17.7
12,Cc1ccc(C2CC(=O)Nc3cc4c(cc32)OCO4)o1 (stereo not shown),-6.64
13,O=C(Nc1cccc(S(=O)(=O)C(F)F)c1)c1ccc(S(=O)(=O)N2CCCC2)cc1,-2.91
14,O=C1c2ccccc2C(=O)N1CCCOc1ccccc1,8.33
15,Cn1c(=O)c2c(nc(Cl)n2CC(=O)N2CCCCC2)n(C)c1=O,42
16,COC(=O)c1cccc(NC(=O)CSc2nnc(COc3ccccc3)n2C)c1,-7.84
17,O=C(CCCCCNC(=O)N1CCn2c1nc1ccccc12)NCc1ccccc1Cl,-16.6
18,COc1ccc(N2C(=O)C3[C@@H](C2=O)C2(Cl)C(Cl)=C(Cl)C3(Cl)C2(OC)OC)cc1 (stereo partly shown),-9.16
19,Cc1ccc(-c2c[n+](Cc3ccc(Cl)cc3)c3n2CCC3)cc1.[Cl-],-41.6
20,CN(C(=O)CSc1nnc(-c2ccco2)o1)C1CCCCC1,-7.54
21,CC(C)NCC(O)COc1ccc(COCCOC(C)C)cc1.O=C(O)/C=C/C(=O)O (stereo not shown),-3.41
22,CC(C)c1ccc(NC2CCCN(C(=O)CCn3cnnn3)C2)cc1 (stereo not shown),3.86

row,Compound,"hERG current change (%, negative = inhibition) at 10uM [%]"
1,CCOC(=O)N1CCC(NC(=O)CS(=O)Cc2nc(-c3ccc(Cl)cc3)oc2C)CC1 (stereo not shown),-47.4
2,CCn1c(SCC(=O)OC(C)C)nnc1-c1ccccc1OC,13.9
3,CCCNC(=O)c1ccc(S(N)(=O)=O)cc1,10.1
4,COC(=O)[C@]1(C)N[C@H](c2ccc(SC3CCCCC3)cc2)[C@@H]2C(=O)N(C)C(=O)[C@@H]21.O=C(O)C(F)(F)F,-2.83
5,CCCC[C@@H]1CNCCN1CCc1cccc2ccccc12,-22.8
6,COc1ccc(OCC(=O)OCC(=O)NCC2CCCCC2)cc1,6.21
7,O=C(CSc1nnc(-c2ccncc2)o1)N1CCCC1,-19.1
8,Cc1cc(C(=O)NC2CCCN(Cc3ccccc3F)C2)no1 (stereo not shown),25.7
9,O=C(CSc1ccc(-c2ccco2)nn1)c1ccc(F)cc1,-25.8
10,COC(=O)NC(NC(=S)Nc1cccc(C)c1)C(Cl)(Cl)Cl (stereo not shown),8.32
11,COc1ccc(CCNC(=O)NC23CC4CC(CC(C4)C2)C3)cc1,3.27
12,O=C(CSCc1c(F)cccc1Cl)NCc1ccncc1,0.859
13,Cc1cc(S(=O)(=O)NCC2CC2)c(Cl)cc1Cl,-1.48
14,O=C(C1CCN(S(=O)(=O)c2cccc3cccnc23)CC1)N1CCCC1,7.5
15,COC(=O)c1sccc1NC(=O)Nc1cccc(C)c1C,14.6
16,CCn1c(NCc2ccc3c(c2)OCO3)nc2ccccc21,-38.5
17,COc1ccc(-c2cn3cccnc3n2)cc1NC(=O)C(C)C,4.49
18,Cc1cc(C)c(NC(=O)c2cn3c4c(c(N5CCN(C)CC5)c(F)cc4c2=O)OCC3C)c(C)c1 (stereo not shown),-51.7
19,CCOc1cccc(N(C(=O)c2ccco2)C(C(=O)NC2CCCC2)c2cccnc2)c1 (stereo not shown),0.854
20,CCN(CC)S(=O)(=O)c1ccc(N/N=C/c2ccc(OC)c(OC)c2OC)nc1,14.1
21,COc1ccc(NC(=O)CN(C)C(=O)Cn2c(=O)oc3ccccc32)cc1,-8.51
22,CC(C)OCCCNC(=O)C1CCC(CNS(=O)(=O)c2ccc(Cl)cc2)CC1 (stereo not shown),12.2

row,Compound,"hERG current change (%, negative = inhibition) at 10uM [%]"
1,COc1ccccc1NS(=O)(=O)c1ccc2[nH]c(=O)[nH]c2c1,1.71
2,O=C(c1ccco1)N1CCN(Cc2cn[nH]c2-c2ccc(F)cc2F)CC1,-12.8
3,COC(=O)c1ccccc1SC(CC(=O)c1ccccc1)c1ccc(F)cc1 (stereo not shown),11.1
4,COC(=O)c1ccc(CSc2nnc(Nc3ccccc3OC)s2)o1,-49.4
5,COc1cc(C=O)ccc1OCCSc1ccc(Cl)cc1,2.93
6,CCN(CC)C1CCN(C(=O)c2cc(COc3ccc(-n4cncn4)cc3)on2)C1 (stereo not shown),-16.9
7,C[C@@H](O)C1NC(=O)[C@H](CCCCN)NC(=O)c2cc([N+](=O)[O-])cc(I)c2OCC[C@@H](C(N)=O)NC1=O (stereo partly shown),22.2
8,COc1ccc(S(=O)(=O)N2CN(CCc3ccc(OC)c(OC)c3)c3nc4ccccc4nc32)cc1,-16
9,COc1cc(/C=C(\C#N)C(=O)NCC2CCCO2)ccc1OCC(=O)O (stereo not shown),11
10,O=C(c1ccc2nc[nH]c2c1)N1CCN(c2ncc(C(F)(F)F)cc2Cl)CC1,-53.6
11,COc1ccc(CNC(=O)c2noc(C)c2[N+](=O)[O-])cc1,6.86
12,Clc1cccc(-c2nc(-c3ccccn3)no2)c1,4.39
13,CCC(C)n1c(O)c(/C=N/Nc2nc3c(c(=O)n(C)c(=O)n3C)n2C)c(=O)[nH]c1=S (stereo not shown),13.4
14,COCCN(C(=O)c1ccc(-c2ccc(Cl)cc2)o1)c1c(N)n(Cc2ccccc2)c(=O)[nH]c1=O,-31.5
15,COc1ccc(N2C(=O)CC(N3CCN(c4ccccc4F)CC3)C2=O)cc1 (stereo not shown),-1.33
16,COc1ccc(N2CCN(C(CNC(=O)C(=O)NCc3cccs3)c3ccco3)CC2)cc1 (stereo not shown),-8.15
17,CN(C)/C=N/c1cnc(C(=O)c2ccc(Cl)cc2)n1C,5.58
18,O=C(CCc1nc2ccccc2c(=O)[nH]1)N1CCN(C/C=C/c2ccccc2)CC1,-42.4
19,CC(=O)n1c(=O)oc2ccccc21,17.3
20,COc1ccc(S(N)(=O)=O)cc1C(=O)N1CCCC1,9.17
21,COc1ccc(NC(=S)N/C(=N/CS(=O)(=O)c2ccccc2)c2ccccc2)cc1,-53
22,CCc1ccc(OCC(=O)NNC(=O)Cc2c(F)cccc2Cl)cc1,13.6

# Reference: publication PMC4336329 (PLoS ONE, 2015)
